In PubChem BioAssay AID743279 (National Center for Advancing Translational Sciences (NCATS), 2014):
The campaign covered roughly 360,000 compounds. About 17,000 (4.7%) were called active. Inconclusive results, whose numbers are uncertain, are shown with a selection of clear calls. Cut-off read from the data, not from the text of the source: active = activity change below about -50%; inconclusive = mostly about -30% to -49%; inactive = weaker than that.
% is set by controls: 0 for no effect and ±100 for the full control effect.

Test: qHTS for Inhibitors of Inflammasome Signaling: IL-1-beta AlphaLISA Primary Screen
Settings: THP-1 LPS/ATP IL-1B secretion, 16 h; at 57.5 µM, active compounds read low
How it was run: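 THP-1 cells pretreated 1 hr with compounds (up to 57.5 uM final), then stimulated with LPS (250 ng/mL final) plus ATP (1.25 mM final); secreted IL-1B measured by AlphaLISA after 16 hr, decreased signal indicating inhibition.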
With COc1cc2c(cc1OC)-c1cc(OCc3ccccc3Cl)nc(=O)n1CC2 the activity change was inactive: -26.2%. In the case of CN(C)CCCN(Cc1ccccc1)C(=S)Nc1ccc(SC(F)F)cc1, the activity change is reported as inconclusive: -36%. In the case of O=C1C=CC(=O)C(C2=C3C(=O)N(CCc4ccccc4)CC(=O)N3CCC2)=C1, the activity change is reported as inconclusive: -39.2%. In the case of Cc1ccc(S(=O)(=O)N2CCN(CCOc3ccccc3)CC2)cc1, the activity change is reported as inconclusive: -42.1%. With COc1ccccc1-c1oc2ccccc2c1-c1ccc2cc[nH]c2c1 the activity change was inconclusive: -37.6%. For CCOP(=O)(OCC)c1nc(-c2cccc3ccccc23)oc1N1CCOCC1, the activity change was active: -72.9%. In the case of Cn1nnnc1SCC(=O)Nc1ccc2c(c1)OCO2, the activity change is reported as inactive: 2.94%. With O=C(COc1ccc([N+](=O)[O-])cc1)NCc1ccncc1 the activity change was inactive: 5.45%. With Cc1ccc(OCC(O)CN2CCOCC2)c(C)c1 (configuration not stated) the activity change was inactive: 7.17%. In the case of CC(=O)Nc1nonc1NC(=O)c1ccc(C(C)(C)C)cc1, the activity change is reported as inactive: 24.3%. In the case of COc1ccc(-c2cc(C(=O)N3CCN(c4ccccc4O)CC3)c3ccccc3n2)cc1OC, the activity change is reported as inconclusive: -36.2%. For Brc1[nH]nc2ccccc12, the activity change was inactive: 27.8%. With COc1cccc(CNC(=O)CCC2CCCN(C(=O)c3cccc4c(C)c(C)[nH]c34)C2)c1 (configuration not stated) the activity change was inconclusive: -42%. In the case of Cc1cc2ccccc2c(=O)n1CC(=O)Nc1ccc2c(c1)OCCO2, the activity change is reported as inconclusive: -31.6%. For Cc1ccsc1/C=C1\SC(N2CC(C)OC(C)C2)=NC1=O (configuration not stated), the activity change was inactive: 0%. For Oc1ccccc1-c1nc(/C=C/c2ccccc2)nn1-c1ccccc1, the activity change was inconclusive: -48.3%. For Cc1cccc(C(=O)N2CCN(c3ncnc4c3cnn4-c3ccccc3)CC2)c1, the activity change was active: -56.6%. For OCC1OC(n2ccc3c(NO)ncnc32)C(O)C1O (configuration not stated), the activity change was active: -102%. For Cc1ccc(OCCNc2cc(N3CCN(CCO)CC3)ccc2[N+](=O)[O-])cc1C, the activity change was inconclusive: -42.9%. With CCN1CCN(c2ccc(S(=O)(=O)N3CCCCC3)cc2NC(=O)CC(C)c2ccccc2)CC1 (configuration not stated) the activity change was inconclusive: -44.9%. With CC(C)CC(=O)Nc1c2c(nn1-c1cccc(Cl)c1)CS(=O)(=O)C2 the activity change was inconclusive: -42.4%. In the case of CCN(CC)C(=O)COC(=O)c1cc(-c2ccc(OC)cc2)nc2ccccc12, the activity change is reported as inconclusive: -38.3%. For COc1cc(C(=O)OCC(=O)N2CCCCC2C)cc(NC(=O)c2cccs2)c1OC (configuration not stated), the activity change was inconclusive: -43.5%. For CN(Cc1cnn(C)c1)C(=O)c1cc(COc2c(F)cccc2F)on1, the activity change was inactive: 0%. For CC(Sc1nc2ccccc2s1)C(=O)c1c(N)n(C)c(=O)n(C)c1=O (configuration not stated), the activity change was inactive: 5.1%. For O=C(COC(=O)c1ccccc1Nc1ccccc1)NCc1ccco1, the activity change was inconclusive: -33.4%. In the case of COc1cc(OC)c(C(=O)CCCN2CCCC2)c(OC)c1, the activity change is reported as inactive: -8.26%. In the case of CCCc1[nH]nc2c1C(c1ccc(OCCN3CCOCC3)c(OC)c1)C(C#N)=C(N)O2 (configuration not stated), the activity change is reported as inconclusive: -48.1%. For O=C(NC(=S)NCC1CCCO1)c1ccccc1Br (configuration not stated), the activity change was inactive: 6.31%. In the case of N#CC1=C(N)Oc2cc(N)ccc2C1c1cc(Br)cs1 (configuration not stated), the activity change is reported as active: -66%. With CCN1C(=O)CC(c2ccccc2)N(C2CCCC2)c2nc(Nc3ccc(C(=O)NC4CCN(C)CC4)cc3OC)ncc21 (configuration not stated) the activity change was active: -77.3%. In the case of CN(C)CCNc1nc2sc3c(c2c(=O)n1CCc1ccccc1)CCCCC3, the activity change is reported as active: -74.9%. For Cc1ccc(NC(=O)NCCN2CCCCC2)cc1Cl, the activity change was inconclusive: -32.2%. In the case of COc1ccc(C2N(c3ccccc3)C(=O)C2(F)F)cc1OC (configuration not stated), the activity change is reported as inconclusive: -37.5%. For O=C(NCC1CCN(Cc2cccc(Cl)c2)CC1)C1CCCN(c2ncnc3c2nc2n3CCCCC2)C1 (configuration not stated), the activity change was inconclusive: -38.9%. For Nc1nnc(SC2CC(=O)N(c3ccccc3)C2=O)s1 (configuration not stated), the activity change was active: -88.6%. For COc1ccc(C(=O)CSc2nccn2C)c(OC)c1, the activity change was inactive: -0.679%. With CCn1c(=O)c(NC(=O)c2ccccc2)c2n(c1=S)CCCCC2 the activity change was inactive: 16.1%. In the case of Cc1[nH]n(-c2ccccc2)c(=O)c1/C=N/N1C(=O)c2ccc3c4c(ccc(c24)C1=O)CC3, the activity change is reported as active: -87.8%. With Nc1ccc2oc(CCc3ccccc3)nc2c1 the activity change was inconclusive: -39.5%. For O=C(NCc1ccco1)C(c1ccncc1)N(C(=O)Cc1cccs1)c1ccccc1 (configuration not stated), the activity change was inactive: -15.5%. For OC(COCc1ccc(Cl)cc1)CN1CCN(c2ccccn2)CC1 (configuration not stated), the activity change was inactive: -7.22%. For O=S1(=O)C=C(SCCN2CCCCC2)c2ccccc21, the activity change was inconclusive: -36.1%. In the case of CCn1nc(NC(=O)c2ccccn2)c2cc3cccc(C)c3nc21, the activity change is reported as inactive: 16.1%. In the case of COc1ccc(/C=C2\SC(=O)N(CCNC(=O)C3CC(=O)N(c4ccccc4)C3)C2=O)cc1 (configuration not stated), the activity change is reported as inconclusive: -32.6%. With COc1ccccc1Cc1c(C(C)(C)C)nc2c3ccccc3ccn12 the activity change was inconclusive: -31.4%. With O=C(Nc1ccc(CN2CCCCC2)cc1)Nc1ccc(Br)cc1Cl the activity change was active: -85.3%. For O=C1CCc2cc(S(=O)(=O)N3CCCC3C(=O)N3CCN(c4ccccc4F)CC3)ccc2N1 (configuration not stated), the activity change was inconclusive: -32%. With O=C(/C=C/c1ccccc1[N+](=O)[O-])OC1CCCCC1=O (configuration not stated) the activity change was inconclusive: -30.1%. For CCCCCOC(=O)Nc1ccc(S(=O)(=O)Nc2cccc([N+](=O)[O-])c2)cc1, the activity change was active: -88.5%. With COc1ccccc1CNC(=O)c1cc(S(=O)(=O)N2CCOCC2)cn1C the activity change was inactive: -7.51%. With CN1CCN(C(=O)C23CCC(C)(c4nc5ccccc5nc42)C3(C)C)CC1 (configuration not stated) the activity change was inactive: 0%. With Oc1ccc(/C=C/c2ccnc3ccccc23)cc1 the activity change was active: -61.9%. With COc1ccccc1OCC(=O)NN=C(Cc1ccccc1)Cc1ccccc1 the activity change was inactive: -18.5%. For COc1ccc(/C=C2\SC(=O)N(CCCC(=O)Nc3ccc(C(=O)O)cc3)C2=O)cc1OC, the activity change was inactive: 12.2%. For Cc1c(Nc2nc3ccccc3n3cnnc23)cccc1[N+](=O)[O-], the activity change was inconclusive: -31.7%. For COc1ccc2ncc(S(=O)(=O)c3ccccc3)c(N3CCC4(CC3)OCCO4)c2c1, the activity change was inconclusive: -44%.
